We go through 89 compounds from PubChem BioAssay (NCI).

Structures are written as SMILES. Values joined by “and” are separate entries in the source; they are usually repeats but may differ in a detail not shown here. Equal values may be shown once.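 These data come from cells grown in 96-well plates and exposed to compound for 48 hours at five concentrations. Here, GI50 denotes the concentration required for 50% inhibition of growth. At the TGI there is no net growth.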

In this test the test system is NCI-H322M lung. The test can be described thus: NCI tumour cell line growth inhibition, 48 h.
`O=c1[nH]nc(Cc2ccc(Cl)cc2)n1CCO`: the TGI was > 100 µM.

The compound `COC(=O)C1=C(C(=O)OC)N(c2ccncc2)C(c2ccco2)=CC1c1ccccc1[N+](=O)[O-]` (centres undefined) yielded a TGI of 23.2 µM.

As to `COC(OC)[C@@H]1OC[C@H](n2ccc(=O)[nH]c2=O)[C@H]1O`, the TGI is > 100 µM.

On to `O=C1c2ccccc2-c2c1c1ccc([N+](=O)[O-])cc1c(=O)n2CCN1CCOCC1`, for which the GI50 is > 100 µM and the TGI is > 100 µM.

`CNc1cc(Cl)ccc1C(=O)N1CCC[C@H]1CO`: the TGI is > 100 µM.

Take `NCCNc1nc2ccc(F)cc2c2c(=O)c3cc(F)ccc3sc12`: the GI50 is 8.77 µM and the TGI worked out at 21.1 µM.

As for `NC(=S)NN=C1Cc2ccccc2C1`, the TGI is > 100 µM.

Regarding `COC(=O)C[C@@H]1CC=CC(=O)/C1=C(O)/C=C/c1ccccc1`, the GI50 is 1.53 µM and the TGI stood at 3.51 µM.

Turning to `O=C(O)c1ccc2[nH]c(=O)oc2c1`, the TGI was > 100 µM.

In the case of `O=C1CCCc2cc3c(cc21)CC1(C3)Cc2cc3c(cc2C1)C(=O)CCC3`, the TGI is > 46.4 µM.

`CC(=S)NC=C(C(N)=O)C(N)=O`: the TGI was > 100 µM.

In the case of `COC(=O)C(Br)(C(=O)OC)C(Br)C(Br)C(Br)c1ccccc1` (centres undefined), the GI50 was 14.3 µM and the TGI worked out at 27.7 µM.

As to `CN(CCCNC(=O)c1nn(-c2ccccc2)c2c1Cc1ccccc1-2)CCCNC(=O)c1nn(-c2ccccc2)c2c1Cc1ccccc1-2`, the TGI stood at 3.22 µM.

Consider `COc1ccc(OC)c(-c2nc3sc(C)cn3c2/C=C2\C(=O)N(C)c3ccccc32)c1`, for which the GI50 was 42.2 µM and the TGI is > 100 µM.

On to `COc1cc2ccnc(-c3n[nH]c4cc(OC)c(OC)cc34)c2cc1OC`, for which the TGI was > 100 µM.

Take `CC/C(=N/O)C(C)C(=O)CCC(=O)Nc1ccc(Cl)cc1` (centres undefined): the TGI was > 100 µM.

As for `CN(C)c1ccc(C2=C([O-])c3cc(-[n+]4ccccc4)ccc3C2=O)cc1`, the TGI was > 100 µM.

Consider `CC(C)=CC1(C)/C(=N\O)C(C)(CC(C)C)C(=O)N1O` (centres undefined), for which the TGI is > 100 µM.

Consider `CCCCc1n(Cc2ccc3ccccc3n2)cc[n+]1Cc1ccc2ccccc2c1`, for which the GI50 was 2.3 µM and the TGI stood at 10 µM.

Turning to `CNC(=O)OCC1=C(COC(=O)NC)CN(c2ccc(OC)cc2)C1`, the TGI was > 100 µM.

Turning to `O=C(/C=C/c1cc(O)ccc1O)c1ccc(Cl)cc1`, the GI50 is 34.2 µM and the TGI was > 100 µM.

In turn, `C=CCc1cccc(/C(O)=C/C(=O)/C=C/c2ccccc2Cl)c1O` returned a TGI of 52.6 µM.

On to `COc1ccc(-n2nnc3c(C#N)c(C)c(-c4ccccc4)n3c2=O)cc1`, for which the TGI was > 100 µM.

Consider `COc1ccc(-n2nc(C(=O)NCC(=O)Nc3nc4cc(OC)ccc4s3)c3ccccc3c2=O)cc1`, for which the GI50 was 2.1 µM and the TGI is > 26.2 µM.

As for `CCCCCCCCCCCc1cc(=O)c2c(O)cccc2o1`, the TGI was > 100 µM.

Regarding `CCCCCCCCCCCCCCCCCCOC(COP(=O)(O)OCC1OC(n2cc(F)c(=O)[nH]c2=O)CC1O)COP(=O)(O)OCC1OC(n2ccc(N)nc2=O)C(O)C1O` (centres undefined), the TGI was > 100 µM.

In the case of `Oc1cc(F)cc2cccnc12`, the TGI is > 100 µM.

Take `COc1ncc(-c2ccc3ncnc(Nc4cccc(Cl)c4)c3c2)cc1NS(C)(=O)=O`: the GI50 was 0.785 µM and the TGI turned out to be 8.61 µM.

On to `c1ccc(C[N+]23C(CC[C@H]2c2ccccc2)CC[C@H]3c2ccccc2)cc1` (some centres undefined), for which the TGI is > 100 µM.

Take `COc1ccc2c3c([nH]c2c1)[C@H](C=C(C)C)N1C(=O)[C@@H]2CCCN2C(=O)[C@@H]1C3`: the TGI was > 100 µM.

Consider `CC[C@H](C)C(=O)O[C@H]1C[C@@H](C)C=C2C=C[C@H](C)[C@H](CC[C@@H]3C[C@@H](O)CC(=O)O3)[C@H]21`, for which the GI50 was 3.74 µM and 8.28 µM; the TGI is > 100 µM and 40.6 µM and > 30 µM.

As to `CN(C)c1cccc2c(S(=O)(=O)NCCCNCCN)cccc12`, the TGI was > 100 µM.

Regarding `COc1ccc2c(ccc3oc([N+](=O)[O-])cc32)c1`, the GI50 is 0.47 µM and the TGI stood at 4.32 µM.

`O=C1/C(=C/c2ccc([N+](=O)[O-])cc2)Sc2scc(-c3cccc([N+](=O)[O-])c3)[n+]21` registered a TGI of 39.3 µM.

Take `c1cc2nnc1SCCSCCCSCCS2`: the TGI is > 100 µM.

On to `COc1cc(CO)cc2c1[nH]c1ccccc12`, for which the TGI was > 25 µM.

For `FC(F)(F)c1nc2c(ccc3[nH]c4c(-c5ccccc5)nccc4c32)[nH]1`, the TGI was > 100 µM.

As to `Cn1c(=O)c2[nH]c(CCS)nc2n(C)c1=O`, the TGI was > 100 µM.

With `CC12OC(C(=O)C13CCC3)C1C(=O)c3c(O)ccc(O)c3C(=O)C12` (centres undefined), the GI50 was 8.66 µM and the TGI is 28.7 µM.

Regarding `O=C1c2ccccc2C(=O)c2c1sc1nc3ccccc3n21`, the TGI stood at 3.33 µM.

For `O=C(c1ccccc1)N1CCC(Nc2cccnc2)O1` (centres undefined), the TGI is > 100 µM.

Turning to `O=C(Cc1ccccc1)N/N=C(/c1nc2ccc([N+](=O)[O-])cc2[nH]c1=O)C(O)c1ccco1` (centres undefined), the TGI is > 100 µM.

Regarding `Cc1cc(=O)[nH]c(S(=O)(=O)NC(=O)Nc2cccc(Cl)c2)n1`, the TGI was > 100 µM.

The compound `CCC1=C(CC2NCCc3cc(OC)c(OC)cc32)CC2c3ccccc3CCN2C1` (centres undefined) had a TGI of 97.8 µM.

For the compound `CCOc1cc(CCNC)c2c(ccc3ccc(OC)c(O)c32)c1OC`, the TGI is 29.2 µM.

As for `CC(=O)OCCC/C(=C/c1cc2ccccc2c2ccccc12)[N+](=O)[O-]`, the GI50 is 1.64 µM and the TGI came to 3.14 µM.

Consider `O=C(c1nc2ccc(Cl)cc2[nH]c1=O)C(O)c1cccc([N+](=O)[O-])c1` (centres undefined), for which the TGI was > 100 µM.

On to `O=S(C(c1ccccc1)=P(c1ccccc1)(c1ccccc1)c1ccccc1)c1ccc(Cl)cc1` (centres undefined), for which the TGI is > 100 µM.

In the case of `CN(CCCN1CCCC1)CCCN(C)C(=O)Cc1ccc(Cl)c(Cl)c1`, the TGI came out at 32.4 µM.

With `O=C1C2CCCCC2C(=O)N1n1c(Cc2ccccc2)n[nH]c1=O` (centres undefined), the TGI was > 100 µM.

Regarding `CN(CCc1ccccn1)c1ccc2c(c1)Cc1ccccc1-2`, the TGI was > 100 µM.

With `O=C(NN1CCCCC1)c1cc2cc(CCl)ccc2oc1=O`, the TGI came to 32.2 µM.

In the case of `NC(=S)N/N=C(/CCN1CCCC1)CC(C1=C(O)C2=CCCCC2OC1=O)c1ccccc1` (centres undefined), the TGI was > 100 µM.

Consider `CCC1=NC(N/N=C/c2ccco2)=N/C1=C\c1ccco1`, for which the TGI was > 100 µM.

As for `Clc1cccc(/C=c2\nc(-c3ccccc3)n3c2nc2ccccc23)c1`, the TGI is > 100 µM.

Turning to `CC(C)C1COC(C(C)(C)C2=N[C@@H](C(C)C)CO2)=N1` (some centres undefined), the TGI is > 100 µM.

Turning to `CCOC(=O)n1ccc2c(C(=O)OC)c(C(=O)OC)cc(/C(=C/C(=O)OC)C(=O)OC)c21`, the TGI is > 100 µM.

With `Oc1c(O)c(Cc2ccccc2)c(Cc2ccccc2)c(Cc2ccccc2)c1Cc1ccccc1`, the TGI is > 10 µM.

Consider `COC(=O)[C@]12CC[C@@H](C)[C@H](C)[C@@H]1C1=CC[C@@H]3[C@@]4(C)C(C=O)=C[C@@](C)(COC(=O)c5ccco5)C4=CC[C@@]3(C)[C@]1(C)CC2`, for which the GI50 is 5.15 µM and the TGI was 53.4 µM.

Regarding `Nc1ncnc2c1N=CN(Oc1ccccc1)N2`, the TGI is > 100 µM.

With `Cc1cc(O)cc(-c2nn(C)cc2-c2cc(N3CCOCC3)nc(-c3cccnc3)n2)c1`, the GI50 is 6.27 µM and the TGI is > 100 µM.

On to `COc1ccc(C2S/C(=C\c3ccc([N+](=O)[O-])cc3)C(=O)N2NC(=O)Cc2ccccc2)cc1` (centres undefined), for which the TGI is > 100 µM.

For `CN(C)C(=S)/N=C(\N)N(C)C`, the TGI is > 100 µM.

Turning to `O=C1Nc2cc(-c3ccc(O)cc3)ccc2/C1=C/c1ccc[nH]1`, the GI50 was 0.246 µM and the TGI worked out at 3.73 µM.

On to `COc1ccc(C#CC2=C(Br)C(=O)OC2)cc1`, for which the GI50 was 3.16 µM and the TGI was determined as 11.3 µM.

In the case of `O=C1/C(=C\c2cccc(Oc3ccccc3)c2)SC(c2ccccc2)N1Cc1ccccc1` (centres undefined), the TGI was > 100 µM.

As to `CC(NC(=O)c1ccc(OP(=O)(OCc2ccc([N+](=O)[O-])o2)N(C)CCCCCl)cc1)c1ccc(OCC2CCCCC2)c(C(N)=O)c1` (centres undefined), the TGI was > 67.2 µM.

Turning to `N#CC1=C(N)Oc2c(ccc3cccnc23)C1c1ccccc1` (centres undefined), the TGI was > 100 µM.

In the case of `CC(O)/C=C/C1OC(=O)CC1Nc1ccc(C=O)cc1` (centres undefined), the TGI was > 100 µM.

Consider `COc1cc(NC(=O)c2cc3ccccc3cc2O)c(OC)cc1Cl`, for which the GI50 was 1.68 µM and the TGI was 6.06 µM.

For the compound `CC(C)C(=O)CC(c1ccc(Br)cc1)N1N=C(C(C)C)CC1c1ccc(Br)cc1` (centres undefined), the TGI is > 100 µM.

`O=[N+]([O-])c1ccc2nc(/C=C(\O)c3ccccc3)c(NC34CC5CC(CC(C5)C3)C4)nc2c1`: the TGI is > 10 µM.

With `OC1CCSc2ccccc21` (centres undefined), the TGI was > 100 µM.

For `Cc1nc2sc(C(=O)Nc3cccc(Cl)c3C)c(N)c2cc1C(O)c1ccccc1` (centres undefined), the GI50 was 0.0685 µM and the TGI turned out to be 35.1 µM.

Consider `Oc1ccc(Cl)cc1C1=Nn2c(COc3ccc4c(c3)CCCC4)nnc2SC1`, for which the TGI stood at 47.5 µM.

As for `COc1cccc(C=C(C#N)C#N)c1OC`, the TGI was > 100 µM.

With `COc1c(OC)c(OC)c2c(=O)c(OC)c(-c3ccc4c(c3)OCO4)oc2c1OC`, the TGI was > 100 µM.

With `O=C(c1nc2ccc(Cl)cc2[nH]c1=O)C(O)c1ccco1` (centres undefined), the TGI is > 100 µM.

`Cc1cccc(/C=N/N=C(\N)NO)n1`: the TGI is > 100 µM.

Regarding `Nc1ccccc1-n1c2c(c3ccccc3c1=O)C(=O)c1ccccc1-2`, the TGI is > 100 µM.

For `CS(=O)(=O)Nc1ccc(NCc2cnc3ccc4[nH]cccc4c23)cc1`, the TGI was > 100 µM.

For `Cc1ccc(S(=O)(=O)Nc2cc(=O)[nH]c3c2CCC3)cc1`, the TGI is > 100 µM.

In the case of `COC(=O)c1ccc(N/C=C(/C#N)c2ccsc2)cc1`, the TGI stood at 72.1 µM.

On to `O=c1oc2ccccc2c(O)c1Cc1ccccc1Cc1c(O)c2ccccc2oc1=O`, for which the TGI is > 100 µM.

As for `CC1=CC[C@@H]2C(=O)C=CC=C[C@H]12.[C-]#[O+].[C-]#[O+].[C-]#[O+].[Fe]`, the GI50 was 86.9 µM and the TGI is > 100 µM.

Regarding `COC(=O)C(Cc1ccccc1)NP(=O)(O)OCC1OC(n2ccc(N)nc2=O)C(O)C1O` (centres undefined), the TGI was > 100 µM.

For the compound `COc1cc2c(cc1OC)C(Cc1cc(Br)c(OC)c(OC)c1)=[N+](C)CC2`, the TGI was > 100 µM.

Turning to `CC1(C)OC2C(O1)[C@H]1OC(C(Cl)(Cl)Cl)=N[C@H]1C(I)[C@H]2N1C(=O)c2ccccc2C1=O` (some centres undefined), the TGI is > 100 µM.

On to `Nc1csc(-c2scc3c2OCCO3)c1N`, for which the TGI was > 100 µM.
